# Test results taken from PubChem BioAssay AID743279 (National Center for Advancing Translational Sciences (NCATS), 2014).
# Among all 360,000 compounds or so, about 17,000 (4.7%) were called active. The shares of active, inactive and inconclusive entries below differ from those in the screen. Cut-off read from the data, not from the text of the source: active = activity change below about -50%; inconclusive = mostly about -30% to -49%; inactive = weaker than that.
# Test: qHTS for Inhibitors of Inflammasome Signaling: IL-1-beta AlphaLISA Primary Screen
# Conditions: THP-1 LPS/ATP IL-1B secretion, 16 h, at 57.5 µM, stronger effect = lower value
# How it was run: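 Secreted IL-1B measured by AlphaLISA bead assay after 16 h compound exposure of THP-1 cells; compounds (final up to 57.5 uM) added 1 h before LPS (250 ng/mL) and ATP (1.25 mM) stimulation; lower signal means less secretion.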
# % is set by controls: 0 for no effect and ±100 for the full control effect.
row,SMILES,activity change
1,O=S(=O)(c1ccc(F)cc1)N1CCCCC1c1cccnc1 (stereo not given),inconclusive: -30.7%
2,C[N+]12CN3CN(CN(C3)C1)C2,inactive: 1.54%
3,O=c1[nH]c2ccccc2n1C1CCN(C(c2cccc3ccccc23)c2nnnn2Cc2ccccc2)CC1 (stereo not given),inconclusive: -37.8%
4,COc1ccc(N2CCN(CCCN)CC2)cc1,inconclusive: -42.6%
5,CNC(=S)N(C)CCc1cc2c(c(OC)c1/C=C1/C(=O)NC(=O)N(C)C1=O)OCO2,inconclusive: -31.8%
6,O=C(c1ccccc1)C(CN1CCCC1)c1ccccc1 (stereo not given),active: -104%
7,NC(=O)c1cn(C2OC(CO)C(O)C2O)c2ncnc(N)c12 (stereo not given),inconclusive: -33.7%
8,Oc1ccc(CCNCc2cc3c(cc2Br)OCO3)cc1,inconclusive: -33.2%
9,COC(=O)C1=C(c2c(C)noc2C)C[C@@H]2CC[C@H]1N2C(=O)NCCCOC(C)C,inactive: 25.9%
10,O=C(c1ccc2c3c(cccc13)CC2)C1CCCN(CC2CC2)C1 (stereo not given),active: -117%
11,CCC[C@H](N[C@@H](CCC)[C@H](O)c1ccccc1)[C@H](O)c1ccccc1,active: -57.7%
12,CCC(=NCCCn1ccnc1)c1c(O)n(-c2ccc(OC)cc2)c(=O)[nH]c1=O,inactive: -13.4%
13,CCOCCCNC(=O)CN1C2CCC1CC(O)(c1ccc(OC)cc1)C2 (stereo not given),inactive: 24.7%
14,Cc1cc(N(CCCl)CCCl)ccc1C=NNC(=O)Cc1cc(=O)oc2cc(O)ccc12,active: -59.3%
15,COc1ccc2c3c([nH]c2c1)C(C)=NCC3,active: -83.8%
16,O=C(c1cc(-c2cccnc2)nc2ccc(Cl)cc12)N1CCC2(CC1)OCCO2,inactive: 14.4%
17,O=c1c2ccccc2nc(/C=C/c2ccccc2)n1-c1ccc(O)cc1,inconclusive: -45.5%
18,FC(F)(F)c1ccc(CNCCc2c[nH]c3ccccc23)cc1,inactive: -16.2%
19,Nc1c(C(=O)NC2CCCC2)c2nc3ccccc3nc2n1CC1CCCO1 (stereo not given),inconclusive: -44.9%
20,Clc1cccc(C2NCCc3[nH]cnc32)c1 (stereo not given),inactive: 30.5%
21,CSCCC(c1nnnn1-c1c(C)cccc1C)N1CCC2(CC1)C(=O)NCN2c1ccccc1 (stereo not given),inconclusive: -49.9%
22,CS(=O)(=O)c1ccc(C2=C(CNC(=O)c3nccs3)[C@H]3CC[C@@H](C2)N3Cc2ccco2)cc1,inactive: 5.03%
23,COc1cccc(NC(=O)CN2CC(c3ccccc3)CC2=O)c1 (stereo not given),inactive: -0.775%
24,CCOC(=O)[C@]12Cc3ccccc3[C@H]1N(C(C)C)C(=O)c1ccccc12,active: -116%
25,CCOc1cccc(C2NCc3ccccc3-n3cccc32)c1O (stereo not given),inactive: -5.51%
